# The supplement of paper PMC8728848
# The other results are listed elsewhere or left out.
# B1: Pul13 (Thermotoga maritima), O33840 (protein)
# chain: ETTIVVHYHRYDGKYDGWNLWIWPVEPVSQEGKAYQFTGEDDFGKVAVVKLPMDLTKVGIIVRLNEWQAKDVAKDRFIEIKDGKAEVWILQGVEEIFYEKP
# Columns and labels:
# Assay in all cases: glycan array binding signal (z-score within array); higher = stronger binding
# Settings in all cases: glycan notation: IUPAC condensed, linker removed
# [1] = target: Glc(a1-6)Glc(a1-6)Glc(a1-6)Glc(a1-6)Glc(a1-6)Glc(a1-6)Glc(a1-6)Glc(a1-6)Glc(a1-6)Glc(a1-6)Glc
# In short: (§1)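 The Consortium for Functional Glycomics database supplied 3228 glycan arrays, of which those lacking an available protein sequence were dropped. The binding signal, a within-array Z-score, was averaged across arrays of the same protein sequence and across linkers. Negative scores can be read as non-binding.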
# [2] = target: Glc(a1-6)Glc(a1-6)Glc(a1-6)Glc(a1-6)Glc(a1-6)Glc(a1-6)Glc(a1-6)Glc(a1-6)Glc(a1-6)Glc(a1-6)Glc(a1-6)Glc
# In short: as §1
# [3] = target: Glc(a1-6)Glc(a1-6)Glc(a1-6)Glc(a1-6)Glc(a1-6)Glc(a1-6)Glc(a1-6)Glc(a1-6)Glc(a1-6)Glc(a1-6)Glc(a1-6)Glc(a1-6)Glc
# In short: as §1
# Glc(b1-2)Glc = target: Glc(b1-2)Glc
# In short: as §1
# Glc(b1-2)Glc(b1-2)Glc = target: Glc(b1-2)Glc(b1-2)Glc
# In short: as §1
# [4] = target: Glc(b1-2)Glc(b1-2)Glc(b1-2)Glc
# In short: as §1
# [5] = target: Glc(b1-2)Glc(b1-2)Glc(b1-2)Glc(b1-2)Glc
# In short: as §1
# [6] = target: Glc(b1-2)Glc(b1-2)Glc(b1-2)Glc(b1-2)Glc(b1-2)Glc
# In short: as §1
# [7] = target: Glc(b1-2)Glc(b1-2)Glc(b1-2)Glc(b1-2)Glc(b1-2)Glc(b1-2)Glc
# In short: as §1
# [8] = target: Glc(b1-2)Glc(b1-2)Glc(b1-2)Glc(b1-2)Glc(b1-2)Glc(b1-2)Glc(b1-2)Glc
# In short: as §1
# [9] = target: Glc(b1-2)Glc(b1-2)Glc(b1-2)Glc(b1-2)Glc(b1-2)Glc(b1-2)Glc(b1-2)Glc(b1-2)Glc
# In short: as §1
# [10] = target: Glc(b1-2)Glc(b1-2)Glc(b1-2)Glc(b1-2)Glc(b1-2)Glc(b1-2)Glc(b1-2)Glc(b1-2)Glc(b1-2)Glc
# In short: as §1
# [11] = target: Glc(b1-2)Glc(b1-2)Glc(b1-2)Glc(b1-2)Glc(b1-2)Glc(b1-2)Glc(b1-2)Glc(b1-2)Glc(b1-2)Glc(b1-2)Glc
# In short: as §1
# [12] = target: Glc(b1-2)Glc(b1-2)Glc(b1-2)Glc(b1-2)Glc(b1-2)Glc(b1-2)Glc(b1-2)Glc(b1-2)Glc(b1-2)Glc(b1-2)Glc(b1-2)Glc
# In short: as §1
# [13] = target: Glc(b1-2)Glc(b1-2)Glc(b1-2)Glc(b1-2)Glc(b1-2)Glc(b1-2)Glc(b1-2)Glc(b1-2)Glc(b1-2)Glc(b1-2)Glc(b1-2)Glc(b1-2)Glc
# In short: as §1
# Glc(b1-3)Glc = target: Glc(b1-3)Glc
# In short: as §1
# Glc(b1-3)Glc(b1-3)Glc = target: Glc(b1-3)Glc(b1-3)Glc
# In short: as §1
# [14] = target: Glc(b1-3)Glc(b1-3)Glc(b1-3)Glc
# In short: as §1
# [15] = target: Glc(b1-3)Glc(b1-3)Glc(b1-3)Glc(b1-3)Glc
# In short: as §1
# [16] = target: Glc(b1-3)Glc(b1-3)Glc(b1-3)Glc(b1-3)Glc(b1-3)Glc
# In short: as §1
# [17] = target: Glc(b1-3)Glc(b1-3)Glc(b1-3)Glc(b1-3)Glc(b1-3)Glc(b1-3)Glc
# In short: as §1
# [18] = target: Glc(b1-3)Glc(b1-3)Glc(b1-3)Glc(b1-3)Glc(b1-3)Glc(b1-3)Glc(b1-3)Glc
# In short: as §1
# [19] = target: Glc(b1-3)Glc(b1-3)Glc(b1-3)Glc(b1-3)Glc(b1-3)Glc(b1-3)Glc(b1-3)Glc(b1-3)Glc
# In short: as §1
# [20] = target: Glc(b1-3)Glc(b1-3)Glc(b1-3)Glc(b1-3)Glc(b1-3)Glc(b1-3)Glc(b1-3)Glc(b1-3)Glc(b1-3)Glc
# In short: as §1
# [21] = target: Glc(b1-3)Glc(b1-3)Glc(b1-3)Glc(b1-3)Glc(b1-3)Glc(b1-3)Glc(b1-3)Glc(b1-3)Glc(b1-3)Glc(b1-3)Glc
# In short: as §1
# [22] = target: Glc(b1-3)Glc(b1-3)Glc(b1-3)Glc(b1-3)Glc(b1-3)Glc(b1-3)Glc(b1-3)Glc(b1-3)Glc(b1-3)Glc(b1-3)Glc(b1-3)Glc
# In short: as §1
# [23] = target: Glc(b1-3)Glc(b1-3)Glc(b1-3)Glc(b1-3)Glc(b1-3)Glc(b1-3)Glc(b1-3)Glc(b1-3)Glc(b1-3)Glc(b1-3)Glc(b1-3)Glc(b1-3)Glc
# In short: as §1
# [24] = target: Glc(b1-3)Glc(b1-3)Glc(b1-3)Glc(b1-3)Glc(b1-3)Glc(b1-3)Glc(b1-3)[Glc(b1-6)]Glc(b1-3)Glc
# In short: as §1
# [25] = target: Glc(b1-3)Glc(b1-3)Glc(b1-3)Glc(b1-3)Glc(b1-3)Glc(b1-3)[Glc(b1-6)]Glc(b1-3)Glc(b1-3)Glc
# In short: as §1
# [26] = target: Glc(b1-3)Glc(b1-3)Glc(b1-3)Glc(b1-3)[Glc(b1-6)]Glc(b1-3)Glc(b1-3)Glc(b1-3)Glc(b1-3)Glc
# In short: as §1
# [27] = target: Glc(b1-3)Glc(b1-3)Glc(b1-3)[Glc(b1-6)]Glc(b1-3)Glc(b1-3)Glc(b1-3)Glc(b1-3)[Glc(b1-6)]Glc(b1-3)Glc
# In short: as §1
# [28] = target: Glc(b1-3)Glc(b1-3)[Glc(b1-6)]Glc(b1-3)Glc(b1-3)Glc(b1-3)Glc(b1-3)Glc(b1-3)Glc(b1-3)Glc
# In short: as §1
# Glc(b1-3)Glc(b1-4)Glc = target: Glc(b1-3)Glc(b1-4)Glc
# In short: as §1
# [29] = target: Glc(b1-3)Glc(b1-4)Glc(b1-4)Glc
# In short: as §1
# [30] = target: Glc(b1-3)Glc(b1-4)Glc(b1-6)Glc(b1-4)Glc
# In short: as §1
# [31] = target: Glc(b1-3)[Glc(b1-6)]Glc(a1-3)Glc(b1-3)[Glc(b1-6)]Glc
# In short: as §1
# [32] = target: Glc(b1-3)[Glc(b1-6)]Glc(b1-3)Glc(b1-3)Glc(b1-3)Glc(b1-3)Glc(b1-3)Glc(b1-3)Glc
# In short: as §1
# Glc(b1-4)Glc = target: Glc(b1-4)Glc
# In short: as §1
# Glc(b1-4)Glc(b1-3)Glc = target: Glc(b1-4)Glc(b1-3)Glc
# In short: as §1
# [33] = target: Glc(b1-4)Glc(b1-3)Glc(b1-4)Glc
# In short: as §1
# Glc(b1-4)Glc(b1-4)Glc = target: Glc(b1-4)Glc(b1-4)Glc
# In short: as §1
# [34] = target: Glc(b1-4)Glc(b1-4)Glc(b1-3)Glc
# In short: as §1
# [35] = target: Glc(b1-4)Glc(b1-4)Glc(b1-3)Glc(b1-4)Glc(b1-4)Glc(b1-3)Glc
# In short: as §1
# [36] = target: Glc(b1-4)Glc(b1-4)Glc(b1-4)Glc
# In short: as §1
# [37] = target: Glc(b1-4)Glc(b1-4)Glc(b1-4)Glc(b1-3)Glc
# In short: as §1
binder,measurement,setting,value
B1,glycan array binding signal (z-score),[1],-0.345
same,glycan array binding signal (z-score),[2],-0.351
same,glycan array binding signal (z-score),[3],-0.351
same,glycan array binding signal (z-score),Glc(b1-2)Glc,-0.351
same,glycan array binding signal (z-score),Glc(b1-2)Glc(b1-2)Glc,-0.351
same,glycan array binding signal (z-score),[4],-0.351
same,glycan array binding signal (z-score),[5],-0.351
same,glycan array binding signal (z-score),[6],-0.351
same,glycan array binding signal (z-score),[7],-0.351
same,glycan array binding signal (z-score),[8],-0.351
same,glycan array binding signal (z-score),[9],-0.351
same,glycan array binding signal (z-score),[10],-0.351
same,glycan array binding signal (z-score),[11],-0.351
same,glycan array binding signal (z-score),[12],-0.351
same,glycan array binding signal (z-score),[13],-0.351
same,glycan array binding signal (z-score),Glc(b1-3)Glc,-0.351
same,glycan array binding signal (z-score),Glc(b1-3)Glc(b1-3)Glc,-0.351
same,glycan array binding signal (z-score),[14],-0.351
same,glycan array binding signal (z-score),[15],-0.351
same,glycan array binding signal (z-score),[16],-0.351
same,glycan array binding signal (z-score),[17],-0.351
same,glycan array binding signal (z-score),[18],-0.351
same,glycan array binding signal (z-score),[19],-0.351
same,glycan array binding signal (z-score),[20],-0.351
same,glycan array binding signal (z-score),[21],-0.351
same,glycan array binding signal (z-score),[22],-0.351
same,glycan array binding signal (z-score),[23],-0.351
same,glycan array binding signal (z-score),[24],-0.351
same,glycan array binding signal (z-score),[25],-0.351
same,glycan array binding signal (z-score),[26],-0.351
same,glycan array binding signal (z-score),[27],-0.351
same,glycan array binding signal (z-score),[28],-0.351
same,glycan array binding signal (z-score),Glc(b1-3)Glc(b1-4)Glc,-0.351
same,glycan array binding signal (z-score),[29],-0.351
same,glycan array binding signal (z-score),[30],-0.351
same,glycan array binding signal (z-score),[31],-0.351
same,glycan array binding signal (z-score),[32],-0.351
same,glycan array binding signal (z-score),Glc(b1-4)Glc,-0.351
same,glycan array binding signal (z-score),Glc(b1-4)Glc(b1-3)Glc,-0.345
same,glycan array binding signal (z-score),[33],-0.351
same,glycan array binding signal (z-score),Glc(b1-4)Glc(b1-4)Glc,-0.351
same,glycan array binding signal (z-score),[34],-0.351
same,glycan array binding signal (z-score),[35],-0.351
same,glycan array binding signal (z-score),[36],-0.351
same,glycan array binding signal (z-score),[37],-0.351
